Source: patent US9931415B2, “Pyrrolobenzodiazepine-antibody conjugates” (ADC THERAPEUTICS S.A., priority 2012, dated 2018)

How the values were obtained:
Daudi cells = assay: In vitro cytotoxicity of ADCs, MTS assay, Daudi (CD25-negative control); type: cell-based, human; settings: 4 days incubation
Experimental: SU-DHL-1 and Karpas299 cells were from the Leibniz Institute DSMZ-German Collection of Microorganisms and Cell Cultures. Daudi cells were from the American Type Culture Collection. Cell culture medium was RPMI 1640 supplemented with L-Glutamine and 10% FBS. Cells were grown at 37° C., 5% CO2, in a humidified incubator.
The concentration and viability of cultures of suspended cells (at up to 1×10^6/m1) were determined by mixing 1:1 with Trypan blue and counting clear (live)/blue (dead) cells with a haemocytometer. The cell suspension was diluted to the required seeding density (generally 10^5/ml) and dispensed into 96-well flat bottomed plates. For Alamar blue assay, 100 μl/well was dispensed in black-well plates. For MTS assay, 50 μl/well was dispensed in clear-well plates. A stock solution (1 ml) of ADC (20 μg/ml) was made by dilution of filter-sterile ADC into cell culture medium. A set of 8×10-fold dilutions of stock ADC were made in a 24 well plate by serial transfer of 100 μl onto 900 μl of cell culture medium. Each ADC dilution (100 μl/well for Alamar blue, 50 μl/well for MTS) was dispensed into 4 replicate wells of the 96-well plate, containing cell suspension. Control wells received the same volume of culture medium only.
Absorbance was measured at 490 nm.

Karpas299 xenograft = assay: In vivo anti-tumour activity of ADCs in Karpas299 xenograft model; design: species or system female NCr nu/nu mice
Experimental: The antibody was conjugated to A and E drug-linkers as described above and tested in the Karpas299 xenograft model. As non-CD25-binding controls, the anti-HIV gp120 antibody, B12, linked to the same warheads was used. At the same time, to investigate any potential anti-tumor activity observed with the non-CD25-binding ADC controls, HuMax-TAC-E and B12-E (both described above) were tested in vivo in combination with 30 fold excess of human IgG.
Procedures: • Set up CR female NCr nu/nu mice with I×KARPAS-299-SPN tumor cells in 0% Matrigel sc in flank. • Cell Injection Volume is 0.1 mL/mouse. • Age at Start Date: 8 to 12 weeks. • Perform a pair match when tumors reach an average size of 100-150 mm^3 and begin treatment. • Body Weight: qd×5 then bi-wk to end • Caliper Measurement: bi-wk to end • Report any adverse reactions or death immediately. • Any individual animal with a single observation of >30% body weight loss or three consecutive measurements of >25% body weight loss will be euthanized. • Any group with two measurements of mean body weight loss of >20% or >10% mortality will stop dosing. The group is not euthanized and recovery is allowed. Within a group with >20% weight loss, individuals hitting the individual body weight loss endpoint will be euthanized. […] Animals are to be monitored individually. […]

B1: HuMax-TAC-E (conjugate)
VH: QVQLVQSGAEVKKPGSSVKVSCKASGGTFSRYIINWVRQAPGQGLEWMGRIIPILGVENYAQKFQGRVTITADKSTSTAYMELSSLRSEDTAVYYCARKDWFDYWGQGTLVTVSSASTKGPSVFPLA
VL: EIVLTQSPGTLSLSPGERATLS[omitted - about 80 residues]TFGGGTKVEIKRTVAAPSVFIFP
Daudi cells
  EC50: 0.2737 µg/mL
Karpas299 xenograft; single IV dose 1 mg/kg ADC + 30 mg/kg human IgG, whole duration of study
  relative activity in combination with 30 mg/kg of IgG: relative activity was not affected
Karpas299 xenograft; single IV dose 0.6 and 1 mg/kg (binding ADCs), 1 mg/kg (non-binding ADCs), FIG. 4
  anti-tumor activity: most potent anti-tumor activity compared to HuMax-TAC-A
